From publication PMC10290086
No constants are given. Whether binding was seen depends on the method and setting. Binding seen in cells or lysates may run through a third protein. Some binding calls cover weakened binding; strength is not graded here.

Protein sequences, listed by entry. Tags and fused reporters are not part of them. Residues count along the entry.
UniProt P52948, residues 1-880: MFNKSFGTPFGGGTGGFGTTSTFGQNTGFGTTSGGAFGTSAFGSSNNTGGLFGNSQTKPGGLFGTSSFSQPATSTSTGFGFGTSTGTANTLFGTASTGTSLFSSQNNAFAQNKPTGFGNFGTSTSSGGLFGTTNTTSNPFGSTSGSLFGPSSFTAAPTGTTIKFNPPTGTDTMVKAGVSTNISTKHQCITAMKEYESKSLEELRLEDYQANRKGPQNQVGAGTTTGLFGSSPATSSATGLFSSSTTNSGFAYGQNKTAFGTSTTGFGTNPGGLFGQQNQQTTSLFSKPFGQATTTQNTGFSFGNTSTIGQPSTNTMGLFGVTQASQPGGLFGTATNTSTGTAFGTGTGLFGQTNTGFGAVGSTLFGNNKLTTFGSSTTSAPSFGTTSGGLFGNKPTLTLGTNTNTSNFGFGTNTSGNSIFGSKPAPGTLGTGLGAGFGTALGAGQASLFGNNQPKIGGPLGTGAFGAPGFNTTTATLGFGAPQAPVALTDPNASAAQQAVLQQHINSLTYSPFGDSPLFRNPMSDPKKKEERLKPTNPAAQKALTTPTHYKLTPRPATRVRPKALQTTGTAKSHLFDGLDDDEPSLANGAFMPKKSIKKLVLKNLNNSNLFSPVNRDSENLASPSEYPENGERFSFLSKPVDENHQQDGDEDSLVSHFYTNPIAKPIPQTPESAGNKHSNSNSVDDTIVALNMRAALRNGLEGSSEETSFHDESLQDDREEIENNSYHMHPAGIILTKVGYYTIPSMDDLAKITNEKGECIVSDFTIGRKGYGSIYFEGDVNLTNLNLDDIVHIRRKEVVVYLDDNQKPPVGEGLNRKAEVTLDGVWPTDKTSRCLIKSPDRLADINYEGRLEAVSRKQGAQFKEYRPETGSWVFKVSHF

Target: NUP98 (human (endogenous in primary keratinocytes)) (UniProt P52948)
Assay: co-IP; nuclear extract of undifferentiated keratinocytes (50 mM Tris pH 8, 0.05% NP-40, 10% glycerol, 2 mM MgCl2, 250 mM NaCl); NUP98 or RAE1 antibody or mouse IgG control on protein G beads, overnight at 4 °C; also with or without RNase A (50 ug/mL, 20 min, 30 °C); blots for NUP98, RAE1, TPR and with mAb414

binding: binds
B1: RAE1 (protein, UniProt P78406 1-368)
chain: MSLFGTTSGFGTSGTSMFGSATTDNHNPMKDIEVTSSPDDSIGCLSFSPPTLPGNFLIAGSWANDVRCWEVQDSGQTIPKAQQMHTGPVLDVCWSDDGSKVFTASCDKTAKMWDLSSNQAIQIAQHDAPVKTIHWIKAPNYSCVMTGSWDKTLKFWDTRSSNPMMVLQLPERCYCADVIYPMAVVATAERGLIVYQLENQPSEFRRIESPLKHQHRCVAIFKDKQNKPTGFALGSIEGRVAIHYINPPNPAKDNFTFKCHRSNGTNTSAPQDIYAVNGIAFHPVHGTLATVGSDGRFSFWDKDARTKLKTSEQLDQPISACCFNHNGNIFAYASSYDWSKGHEFYNPQKKNYIFLRNAAEELKPRNKK
